# The supplement of paper PMC8728848
# The list shows a part of the results.
# B1: rCnSL-proB (Clitocybe nebularis) (protein)
# chain: PTFSPIFALLAFLPFGTLASLLPQTQLVFRINPNLPGPNDVFVGYRGTNNVVGAIYERDGIKDTPMNNGADAELGPGSYITDDLFTAQIFASGSAGNNPGTTATVCKIYADGVQWRGAPKGYLPVLYFGNGQAAEQTRQTYLQGLDIPGTAIRFANLAKTPNQGPTAPRQMVVPSGGLQTLLKASCFPANHAALPQVLSYFNVRAALPPGWNIRTGPEFPNWTN
# Assays:
# Assay in all cases: glycan array binding signal (z-score within array); higher = stronger binding
# Conditions in all cases: glycan notation: IUPAC condensed, linker removed
# Neu5Ac(a2-3)GalNAc = biological target: Neu5Ac(a2-3)GalNAc
# Outline: (§1)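 Arrays were curated from the Consortium for Functional Glycomics database, 3228 in total, and kept only where the protein sequence was available. Binding is expressed as a within-array Z-score. This score was averaged across arrays of the same protein sequence at different concentrations or buffers and across linkers, and negative values can be read as non-binding.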
# [1] = biological target: Neu5Ac(a2-3)GalNAc(b1-4)GlcNAc
# Outline: as §1
# [2] = biological target: Neu5Ac(a2-3)[GalNAc(b1-4)]Gal(b1-4)Glc
# Outline: as §1
# [3] = biological target: Neu5Ac(a2-3)[GalNAc(b1-4)]Gal(b1-4)GlcNAc
# Outline: as §1
# [4] = biological target: Neu5Ac(a2-3)[GalNAc(b1-4)]Gal(b1-4)GlcNAc(b1-3)GalNAc
# Outline: as §1
# [5] = biological target: Neu5Ac(a2-3)[Neu5Ac(a2-6)]GalNAc
# Outline: as §1
# Neu5Ac(a2-6)Gal = biological target: Neu5Ac(a2-6)Gal
# Outline: as §1
# [6] = biological target: Neu5Ac(a2-6)Gal(b1-3)GlcNAc(b1-3)[Gal(b1-4)GlcNAc(b1-6)]Gal(b1-4)Glc
# Outline: as §1
# Neu5Ac(a2-6)Gal(b1-4)Glc = biological target: Neu5Ac(a2-6)Gal(b1-4)Glc
# Outline: as §1
# [7] = biological target: Neu5Ac(a2-6)Gal(b1-4)GlcNAc
# Outline: as §1
# [8] = biological target: Neu5Ac(a2-6)Gal(b1-4)GlcNAc(b1-2)Man
# Outline: as §1
# [9] = biological target: Neu5Ac(a2-6)Gal(b1-4)GlcNAc(b1-2)Man(a1-3)Man(b1-4)GlcNAc(b1-4)GlcNAc
# Outline: as §1
# [10] = biological target: Neu5Ac(a2-6)Gal(b1-4)GlcNAc(b1-2)Man(a1-3)[Gal(b1-4)GlcNAc(b1-2)Man(a1-6)]Man(b1-4)GlcNAc(b1-4)GlcNAc
# Outline: as §1
# [11] = biological target: Neu5Ac(a2-6)Gal(b1-4)GlcNAc(b1-2)Man(a1-3)[GlcNAc(b1-2)Man(a1-6)]Man(b1-4)GlcNAc(b1-4)GlcNAc
# Outline: as §1
# [12] = biological target: Neu5Ac(a2-6)Gal(b1-4)GlcNAc(b1-2)Man(a1-3)[GlcNAc(b1-4)][Neu5Ac(a2-6)Gal(b1-4)GlcNAc(b1-2)Man(a1-6)]Man(b1-4)GlcNAc(b1-4)GlcNAc
# Outline: as §1
# [13] = biological target: Neu5Ac(a2-6)Gal(b1-4)GlcNAc(b1-2)Man(a1-3)[Man(a1-6)]Man(b1-4)GlcNAc(b1-4)GlcNAc
# Outline: as §1
# [14] = biological target: Neu5Ac(a2-6)Gal(b1-4)GlcNAc(b1-2)Man(a1-3)[Neu5Ac(a2-3)Gal(b1-4)GlcNAc(b1-2)Man(a1-6)]Man(b1-4)GlcNAc(b1-4)GlcNAc
# Outline: as §1
# [15] = biological target: Neu5Ac(a2-6)Gal(b1-4)GlcNAc(b1-2)Man(a1-3)[Neu5Ac(a2-6)Gal(b1-4)GlcNAc(b1-2)Man(a1-6)]Man(b1-4)GlcNAc(b1-4)GlcNAc
# Outline: as §1
# [16] = biological target: Neu5Ac(a2-6)Gal(b1-4)GlcNAc(b1-2)Man(a1-3)[Neu5Ac(a2-6)Gal(b1-4)GlcNAc(b1-2)Man(a1-6)]Man(b1-4)GlcNAc(b1-4)[Fuc(a1-6)]GlcNAc
# Outline: as §1
# [17] = biological target: Neu5Ac(a2-6)Gal(b1-4)GlcNAc(b1-2)Man(a1-6)Man(b1-4)GlcNAc(b1-4)GlcNAc
# Outline: as §1
# [18] = biological target: Neu5Ac(a2-6)Gal(b1-4)GlcNAc(b1-2)Man(a1-6)[Gal(b1-4)GlcNAc(b1-2)Man(a1-3)]Man(b1-4)GlcNAc(b1-4)GlcNAc
# Outline: as §1
# [19] = biological target: Neu5Ac(a2-6)Gal(b1-4)GlcNAc(b1-2)Man(a1-6)[GlcNAc(b1-2)Man(a1-3)]Man(b1-4)GlcNAc(b1-4)GlcNAc
# Outline: as §1
# [20] = biological target: Neu5Ac(a2-6)Gal(b1-4)GlcNAc(b1-2)Man(a1-6)[Man(a1-3)]Man(b1-4)GlcNAc(b1-4)GlcNAc
# Outline: as §1
# [21] = biological target: Neu5Ac(a2-6)Gal(b1-4)GlcNAc(b1-2)[Neu5Ac(a2-6)Gal(b1-4)GlcNAc(b1-4)]Man(a1-3)[GlcNAc(b1-4)][Neu5Ac(a2-6)Gal(b1-4)GlcNAc(b1-2)[Neu5Ac(a2-6)Gal(b1-4)GlcNAc(b1-6)]Man(a1-6)]Man(b1-4)GlcNAc(b1-4)GlcNAc
# Outline: as §1
# [22] = biological target: Neu5Ac(a2-6)Gal(b1-4)GlcNAc(b1-2)[Neu5Ac(a2-6)Gal(b1-4)GlcNAc(b1-4)]Man(a1-3)[GlcNAc(b1-4)][Neu5Ac(a2-6)Gal(b1-4)GlcNAc(b1-4)Man(a1-6)]Man(b1-4)GlcNAc(b1-4)GlcNAc
# Outline: as §1
# [23] = biological target: Neu5Ac(a2-6)Gal(b1-4)GlcNAc(b1-2)[Neu5Ac(a2-6)Gal(b1-4)GlcNAc(b1-6)]Man(a1-6)[Neu5Ac(a2-6)Gal(b1-4)GlcNAc(b1-2)Man(a1-3)][GlcNAc(b1-4)]Man(b1-4)GlcNAc(b1-4)GlcNAc
# Outline: as §1
# [24] = biological target: Neu5Ac(a2-6)Gal(b1-4)GlcNAc(b1-3)Gal(b1-3)GlcNAc
# Outline: as §1
# [25] = biological target: Neu5Ac(a2-6)Gal(b1-4)GlcNAc(b1-3)Gal(b1-4)GlcNAc
# Outline: as §1
# [26] = biological target: Neu5Ac(a2-6)Gal(b1-4)GlcNAc(b1-3)Gal(b1-4)GlcNAc(b1-2)Man(a1-3)[Neu5Ac(a2-6)Gal(b1-4)GlcNAc(b1-3)Gal(b1-4)GlcNAc(b1-2)Man(a1-6)]GalNAc
# Outline: as §1
# [27] = biological target: Neu5Ac(a2-6)Gal(b1-4)GlcNAc(b1-3)Gal(b1-4)GlcNAc(b1-3)Gal(b1-4)GlcNAc
# Outline: as §1
# [28] = biological target: Neu5Ac(a2-6)Gal(b1-4)GlcNAc(b1-3)Gal(b1-4)GlcNAc(b1-3)Gal(b1-4)GlcNAc(b1-2)Man(a1-3)[Neu5Ac(a2-6)Gal(b1-4)GlcNAc(b1-3)Gal(b1-4)GlcNAc(b1-3)Gal(b1-4)GlcNAc(b1-2)Man(a1-6)]GalNAc
# Outline: as §1
# [29] = biological target: Neu5Ac(a2-6)Gal(b1-4)GlcNAc(b1-3)Gal(b1-4)GlcNAc(b1-3)GalNAc
# Outline: as §1
# [30] = biological target: Neu5Ac(a2-6)Gal(b1-4)GlcNAc(b1-3)Gal(b1-4)GlcNAc(b1-3)[Neu5Ac(a2-6)Gal(b1-4)GlcNAc(b1-3)Gal(b1-4)GlcNAc(b1-6)]GalNAc
# Outline: as §1
# [31] = biological target: Neu5Ac(a2-6)Gal(b1-4)GlcNAc(b1-3)Gal(b1-4)GlcNAc(b1-6)[Gal(b1-3)]GalNAc
# Outline: as §1
# [32] = biological target: Neu5Ac(a2-6)Gal(b1-4)GlcNAc(b1-3)Gal(b1-4)[Fuc(a1-3)]GlcNAc(b1-3)Gal(b1-4)[Fuc(a1-3)]GlcNAc
# Outline: as §1
# [33] = biological target: Neu5Ac(a2-6)Gal(b1-4)GlcNAc(b1-3)GalNAc
# Outline: as §1
# [34] = biological target: Neu5Ac(a2-6)Gal(b1-4)GlcNAc(b1-3)[Neu5Ac(a2-6)Gal(b1-4)GlcNAc(b1-6)]GalNAc
# Outline: as §1
# [35] = biological target: Neu5Ac(a2-6)Gal(b1-4)GlcNAc(b1-6)GalNAc
# Outline: as §1
# [36] = biological target: Neu5Ac(a2-6)Gal(b1-4)GlcNAc(b1-6)[Gal(b1-3)GlcNAc(b1-3)]Gal(b1-4)Glc
# Outline: as §1
# [37] = biological target: Neu5Ac(a2-6)Gal(b1-4)GlcNAc(b1-6)[Gal(b1-3)]GalNAc
# Outline: as §1
# [38] = biological target: Neu5Ac(a2-6)Gal(b1-4)GlcNAc6S
# Outline: as §1
# Neu5Ac(a2-6)GalNAc = biological target: Neu5Ac(a2-6)GalNAc
# Outline: as §1
# [39] = biological target: Neu5Ac(a2-6)GalNAc(b1-4)GlcNAc
# Outline: as §1
# [40] = biological target: Neu5Ac(a2-6)GalNAc(b1-4)GlcNAc6S
# Outline: as §1
# [41] = biological target: Neu5Ac(a2-6)GlcNAc(b1-4)GlcNAc
# Outline: as §1
binder,measurement,setting,value
B1,glycan array binding signal (z-score),Neu5Ac(a2-3)GalNAc,-0.922
same,glycan array binding signal (z-score),[1],0.049
same,glycan array binding signal (z-score),[2],0.279
same,glycan array binding signal (z-score),[3],-0.499
same,glycan array binding signal (z-score),[4],1.25
same,glycan array binding signal (z-score),[5],-0.488
same,glycan array binding signal (z-score),Neu5Ac(a2-6)Gal,-0.004
same,glycan array binding signal (z-score),[6],-0.672
same,glycan array binding signal (z-score),Neu5Ac(a2-6)Gal(b1-4)Glc,0.084
same,glycan array binding signal (z-score),[7],-0.527
same,glycan array binding signal (z-score),[8],0.328
same,glycan array binding signal (z-score),[9],-0.31
same,glycan array binding signal (z-score),[10],-0.139
same,glycan array binding signal (z-score),[11],-0.339
same,glycan array binding signal (z-score),[12],-0.441
same,glycan array binding signal (z-score),[13],0.012
same,glycan array binding signal (z-score),[14],-0.255
same,glycan array binding signal (z-score),[15],-0.183
same,glycan array binding signal (z-score),[16],0.037
same,glycan array binding signal (z-score),[17],-0.465
same,glycan array binding signal (z-score),[18],-0.252
same,glycan array binding signal (z-score),[19],-0.553
same,glycan array binding signal (z-score),[20],0.08
same,glycan array binding signal (z-score),[21],-0.757
same,glycan array binding signal (z-score),[22],-0.186
same,glycan array binding signal (z-score),[23],-0.418
same,glycan array binding signal (z-score),[24],0.789
same,glycan array binding signal (z-score),[25],-0.804
same,glycan array binding signal (z-score),[26],0.728
same,glycan array binding signal (z-score),[27],0.146
same,glycan array binding signal (z-score),[28],3.06
same,glycan array binding signal (z-score),[29],-0.613
same,glycan array binding signal (z-score),[30],2.62
same,glycan array binding signal (z-score),[31],0.051
same,glycan array binding signal (z-score),[32],0.101
same,glycan array binding signal (z-score),[33],-0.47
same,glycan array binding signal (z-score),[34],-0.681
same,glycan array binding signal (z-score),[35],0.251
same,glycan array binding signal (z-score),[36],-0.154
same,glycan array binding signal (z-score),[37],-0.365
same,glycan array binding signal (z-score),[38],-0.186
same,glycan array binding signal (z-score),Neu5Ac(a2-6)GalNAc,-0.41
same,glycan array binding signal (z-score),[39],-0.802
same,glycan array binding signal (z-score),[40],-0.462
same,glycan array binding signal (z-score),[41],-0.255
